Whole data set: some 33,000 sequences, median “E-score (-0.5 to 0.5)” near -0.01, cut for the highest 2% near 0.26. The list shows a part of the results.
Target: Ste12 (UniProt P13574)
Experiment: PBM E-score (8-mer binding enrichment) (E-score (-0.5 to 0.5)); higher = stronger / more preferred TF binding; most listed sequences are background and not binding sites
Conditions: protein concentration: 200 nM; construct: GST-DNA-binding domain
How it was run: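 The E-score, a modified Wilcoxon-Mann-Whitney statistic, was computed by the Universal PBM Analysis Suite for every ungapped eight-base word pooled with its reverse complement. Scans behind it were normalised with masliner after bound GST-tagged yeast transcription factors were detected with fluorescent anti-GST. The proteins, at about 100-200 nM, had been applied to universal all-10-mer Agilent arrays made double-stranded by primer extension.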

Sequence | PBM E-score
GTCGTCTA | -0.0926
GCAACTAA | -0.0101
CGTTTCGC | 0.296
TCCCTCGA | 0.0339
CGAACGCG | 0.0317
GTGCGCAA | -0.0274
ACCTTTGG | -0.223
GAGTTAGC | -0.0742
AGGGGACT | -0.0958
CCTTCATA | -0.0144
GCCCCGCC | 0.33
ACTAACGA | -0.0183
CGTCGTGA | -0.1
CCGACGTA | -0.124
GTACTAAA | 0.0446
CCTCCTAC | 0.0107
GTCTCCAA | 0.0569
CGATAGAC | -0.0818
ATTTTTGG | 0.183
ACTAGTGC | -0.182
CACACCCA | 0.0803
ACACTAAC | -0.0194
GGAGGGAC | -0.00419
CAGGACTG | -0.0991
CTTACTAC | 0.0578

Sequence | PBM E-score
ATCGCCCC | -0.0404
CTTACAGC | 0.0013
CCACTCAG | -0.0273
CAACGGAG | -0.152
CCCCGGAC | 0.0497
CACCCGGA | 0.186
CGTAGACC | -0.15
TAAAGGAA | 0.0666
CGCGTACA | 0.00106
AGTGCGTC | -0.322
GACCATAA | 0.107
CTATGGTA | -0.121
ACAATATC | 0.116
CGGTCGGA | -0.00578
ACAGTTAC | 0.163
AACCACGC | -0.143
AACCAAGC | 0.0495
ATGCTGTC | -0.216
ATGCGTGA | -0.0382
GCTCACGA | -0.151
GATTGTCC | -0.095
CCGCCGGA | 0.105
AGTATAGC | -0.022
GATAATCC | -0.129
AGAGCTGC | -0.363

Sequence | PBM E-score
CTATTGAC | -0.0696
CGTAAGAA | 0.0645
AAGGTAGC | -0.237
CCTGCACG | -0.0209
ATGCTACA | -0.0613
ACAGGTGG | -0.0436
CGCCCACA | 0.197
ATAAGCCA | 0.148
ATAGGGCG | -0.087
AGCGTTCG | 0.0142
CCCCCTCC | -0.121
GTGAGGCA | -0.0727
CTAAGGAA | -0.0429
ACACATGG | 0.0687
ACCATATG | 0.105
TAGCCCCA | -0.0697
CAGAAGAC | -0.0636
CGCGTGCC | -0.0311
AGGTCCAG | -0.121
AAACTCGA | 0.203
CTGCTCGA | -0.167
GCGTTTAC | -0.0566
CGCCGTAA | 0.0117
CTTTGCTA | 0.162
TCCCCTCA | 0.211

Sequence | PBM E-score
GGAGAAGA | -0.0437
AAGTCCCT | -0.124
GTAATGAA | -0.129
AAACCATT | 0.0969
AGGAGCAG | -0.189
CATTACTC | 0.0508
CCGCATAG | -0.00181
GCTTAAAC | -0.0138
CTCGCCAA | -0.034
ACCATGTA | 0.0456
ATTTGGTG | 0.16
ATCACCGG | -0.0135
ATTCCGTA | -0.0191
CCTGAGTC | -0.193
GAGAACGC | -0.103
ATGTGCCC | -0.16
GTCATTTA | -0.192
CATGGTGC | -0.0606
AGGAATCG | -0.0451
CCGAGCGG | -0.116
AGCCTCAG | -0.123
CTGAATCC | 0.0117
GGGCGGCA | -0.00298
ACTTAGGG | 0.116
CGGTTTGC | 0.0736

Sequence | PBM E-score
AAAGATTG | 0.0308
GAGTTCAA | -0.0508
CCACATGC | -0.0924
ATTACACA | 0.194
CGTGGTGC | -0.249
ATTGGTGA | 0.0373
GGATGAGA | -0.0151
AGGCGATC | -0.166
AAGATCCC | -0.0527
ACCGCGAT | 0.00413
AGCGACTG | -0.0631
TAAATAGA | -0.0338
ACACAGCA | 0.0338
AAGACTGC | -0.153
GCGGCCGA | -0.00527
CATCGTCC | -0.114
CAGGAGCA | -0.0189
ATTCTGAA | 0.118
CGGTTTGA | 0.0944
ATCACACG | 0.0439
CACCGCGC | -0.037
AAGTTTAG | 0.067
AGGGTTTG | 0.14
ACATAAGA | 0.193
ATTGTCGA | 0.104

Sequence | PBM E-score
AATGCAGG | -0.119
CACATGTC | -0.133
ACACCTTA | -0.0837
ATGCGCTC | 0.0298
TGATTCCA | 0.0417
ATCACGAC | -0.128
AACAATAG | 0.0913
CTGATCAG | -0.0327
GCACTTGA | -0.14
CGTATCAA | 0.088
AGATTCTC | -0.0258
GACAGACC | -0.0447
CAATTCCG | 0.0165
AACAGACA | 0.16
AGATGCAA | -0.0413
AACAGCAG | 0.0314
ACCAGAGT | -0.114
ATTAAAAC | 0.313
GCGCCAAC | 0.0703
CGCGGGAG | -0.025
TCTTCTCA | 0.019
CCCGAAGC | -0.107
TACTGCCA | -0.183
CACTTATG | 0.00871
GACCCAGA | 0.0219

Sequence | PBM E-score
AGAGTCCT | -0.22
GATCCTGC | -0.0331
CCGATGAA | 0.173
TAGCCCGA | 0.0463
CTGGTTCC | -0.11
GCCGGCGC | 0.125
CTTTTTTC | 0.139
AGTGTACC | -0.221
AGGTTGGC | -0.253
GTGGCACA | -0.151
CAGGAGCC | -0.208
AGTGCGCA | 0.122
ACTACGAT | -0.0319
ATGCGCCG | -0.15
GCCTGGAC | -0.0287
AAGGTTTC | 0.148
ACTTATCC | -0.016
AGTTGAGG | 0.0958
ACCTGCTA | 0.0607
CGGAACCC | 0.0647
GAGCTTGA | -0.176
ATTTCACG | 0.122

Source: the supplement of paper PMC3334620
